Screen size: about 310,000 compounds; about 2,200 (0.71%) showed an effect of 50% or more. Effects have a minus sign here. This is one part of the list.
target: human ether-à-go-go-related gene (hERG) potassium channel (human, UniProt Q12809); experiment: primary screen, population patch clamp on CHO cells stably expressing hERG
Sequence (Q12809 whole entry, looked up): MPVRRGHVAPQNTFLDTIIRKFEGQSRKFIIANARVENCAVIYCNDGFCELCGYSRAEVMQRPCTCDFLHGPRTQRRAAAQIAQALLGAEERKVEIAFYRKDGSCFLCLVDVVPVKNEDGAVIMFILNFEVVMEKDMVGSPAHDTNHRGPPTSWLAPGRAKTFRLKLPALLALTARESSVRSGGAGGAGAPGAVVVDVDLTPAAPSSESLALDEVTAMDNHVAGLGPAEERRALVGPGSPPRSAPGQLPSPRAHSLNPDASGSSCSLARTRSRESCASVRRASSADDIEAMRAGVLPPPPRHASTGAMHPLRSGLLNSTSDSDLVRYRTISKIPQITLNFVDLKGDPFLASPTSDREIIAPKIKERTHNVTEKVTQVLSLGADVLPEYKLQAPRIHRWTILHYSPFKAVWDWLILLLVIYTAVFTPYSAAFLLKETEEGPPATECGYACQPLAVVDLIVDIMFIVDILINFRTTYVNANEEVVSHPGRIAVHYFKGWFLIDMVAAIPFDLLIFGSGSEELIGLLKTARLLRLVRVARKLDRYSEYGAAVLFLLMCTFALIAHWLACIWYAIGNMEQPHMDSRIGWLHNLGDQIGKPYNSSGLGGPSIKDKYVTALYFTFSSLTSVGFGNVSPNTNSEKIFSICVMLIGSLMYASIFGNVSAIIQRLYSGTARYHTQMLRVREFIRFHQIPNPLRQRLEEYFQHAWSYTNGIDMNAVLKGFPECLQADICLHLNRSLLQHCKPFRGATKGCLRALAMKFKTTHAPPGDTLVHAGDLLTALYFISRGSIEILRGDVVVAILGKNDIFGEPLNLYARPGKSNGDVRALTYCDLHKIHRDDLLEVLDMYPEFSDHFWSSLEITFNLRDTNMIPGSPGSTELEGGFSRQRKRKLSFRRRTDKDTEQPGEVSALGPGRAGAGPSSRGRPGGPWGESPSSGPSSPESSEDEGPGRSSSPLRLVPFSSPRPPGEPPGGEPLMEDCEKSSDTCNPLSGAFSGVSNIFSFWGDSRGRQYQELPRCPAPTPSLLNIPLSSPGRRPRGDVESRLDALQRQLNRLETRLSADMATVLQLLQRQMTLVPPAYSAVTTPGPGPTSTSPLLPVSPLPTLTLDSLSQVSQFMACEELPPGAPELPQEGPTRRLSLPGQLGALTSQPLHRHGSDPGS

Row | Compound | hERG current change (%, negative = inhibition) at 1uM
1 | CCCn1c(C(C)Nc2nc(-c3cc(Cl)c(N)c(Cl)c3)cs2)nc2cc(Cl)c(N3CCCCC3)cc21 (centres unmarked) | 7.78%
2 | CCc1noc(C)c1C(=O)Nc1ccccc1N1CCOCC1 | -0.229%
3 | COc1ccc(NC(=O)CCS(=O)(=O)c2ccc3c(c2)CCCN3C(C)=O)cc1Cl | 2.1%
4 | CCN(CC)CC#Cc1ccc(C)cc1.Cl | 10.9%
5 | O=C1C(=O)N(c2ccccn2)C(c2ccc(F)cc2)/C1=C(/O)c1ccc(Br)cc1 (centres unmarked) | 10.2%
6 | COc1cccc(NC(=O)CN(C)S(=O)(=O)c2ccc(C)cc2)c1 | 6.84%
7 | COc1ccc(OCc2cc(C(=O)N3CCCC3)no2)c2ccccc12 | 9.48%
8 | Cc1ccc(S(=O)(=O)N2CCOCC2)cc1C(=O)NCC1CCCO1 (centres unmarked) | 10%
9 | COc1ccc(CC(=O)NCc2ccc3c(c2)cc(C)n3C)cc1 | 12.4%
10 | COc1ccc(C2C=C(c3ccc(C)c(C)c3)Nc3ncnn32)c(OC)c1OC (centres unmarked) | 10.4%
11 | CSCc1ccc(C(=O)NCC(c2cccs2)N2CCOCC2)cc1 (centres unmarked) | 5.03%
12 | CN1CCN(NC(=O)c2cc(-c3ccccn3)nc3ccccc23)CC1 | 10.3%
13 | C=CC(=O)N1c2ccccc2Sc2ccc(NC(=O)OCC)cc21 | 8.8%
14 | CCC(CC)C(=O)Nc1cc(Cl)ccc1C | 10.1%
15 | COc1ccc(CN(C)C(=O)c2ccc3c(=O)n4c(nc3c2)CCC4)cc1 | 12%
16 | C=CC(C)(C)c1cc2cc3ccoc3cc2oc1=O | 7.48%
17 | CN(C)S(=O)(=O)c1cccc(C(=O)OCC(=O)NCc2ccc3c(c2)OCO3)c1 | 7.09%
18 | CCn1c2ccccc2c2cc(NC(=O)C3CCN(S(=O)(=O)c4cccs4)CC3)ccc21 | 0.618%
19 | O=C(Cc1ccccc1)NNC1CC(=O)N(c2ccc(Oc3ccccc3)cc2)C1=O (centres unmarked) | 9.6%
20 | Cc1cc(C)cc(N(CC(=O)NCc2ccco2)S(=O)(=O)c2c(C)noc2C)c1 | -14.8%
21 | CCCCCOc1ccc(N2C(=O)C(C)CNC2=S)cc1 (centres unmarked) | 9.07%
22 | CC1(C)c2[nH]c3ccccc3c2C[C@H]2C(=O)N(Cc3ccccc3F)C(=O)N21 | 19.3%
23 | COc1ccc(NC(=O)CN2CCOCC2)cc1.O=C(O)C(=O)O | 16.1%

Row | Compound | hERG current change (%, negative = inhibition) at 1uM
24 | CCc1ccc(/C=N/NC(=O)c2nnn(-c3nonc3N)c2CN2CCOCC2)cc1 | -2%
25 | O=C(O)CS(=O)(=O)CC(=O)NCc1cccc(C(F)(F)F)c1 | 14.2%
26 | C=CCNC(=O)c1cc(Cl)ccc1[N+](=O)[O-] | 16.8%
27 | COc1ccc(Cl)cc1C(=O)O/N=C(\N)c1ccncc1 | 4.35%
28 | Cc1ccc(C)c(OCc2cc(C(=O)N3CCN(C(=O)c4ccco4)CC3)no2)c1 | 5.61%
29 | O=C(NCc1ccccc1C(F)(F)F)C1CC(c2ccccc2[N+](=O)[O-])=NO1 (centres unmarked) | 7.13%
30 | CSc1nc2ncnc(N)c2[nH]1 | 9.01%
31 | Cl.OC(CN1C2=NCCCN2c2ccccc21)c1ccc(Cl)cc1 (centres unmarked) | -76.2%
32 | COc1ccc(S(=O)(=O)NC(CC(=O)NCc2ccc3c(c2)OCO3)c2ccco2)cc1 (centres unmarked) | 13.4%
33 | Cc1cccc(NC(=O)Cn2c(=O)n(Cc3ccccc3)c(=O)c3c(C)c(C)sc32)c1 | -2.93%
34 | COCCN(Cc1cn[nH]c1-c1ccc2cc(OC)ccc2c1)C(C)C | -0.364%
35 | Cc1cccc(N(Cc2cc3cc(C)ccc3[nH]c2=O)C(=O)c2cccs2)c1 | 8.85%
36 | O=C(NCc1ccncc1)c1ccc(Oc2ccccc2)cc1 | 19%
37 | CCc1sc(C(=O)NCCCn2ccnc2)cc1Br | 13.2%
38 | CC(=O)c1ccc(NC(=O)CCNS(=O)(=O)c2cccc3nonc23)cc1 | 18.6%
39 | Cc1cc2cccc(C)c2nc1SCC(=O)NNC(=O)c1ccco1 | 12%
40 | C#CCOC(=O)c1ccccc1C(=O)O | 12.8%
41 | CC(C)(C)N1CC(OC(N)=O)C1 | 17.2%
42 | O=C(c1cccc(N2C(=O)c3ccccc3C2=O)c1)N1CCCCCC1 | 9%
43 | COc1ccc(C2CC(c3ccccc3)=NN2C(=O)COC(=O)CNC(=O)c2ccccc2)cc1 (centres unmarked) | -1.01%
44 | NC1=NC(=O)C(CC(=O)c2ccc(Cl)cc2)S1 (centres unmarked) | -1.2%
45 | CCOC(=O)C1=C(C)N=c2s/c(=C3/C(=O)Nc4ccccc43)c(=O)n2C1c1ccc(C)cc1 (centres unmarked) | 7.74%
46 | CCn1cnc2sc(C(=O)N(Cc3ccc(N(C)C)cc3)Cc3ccco3)c(C)c2c1=O | -13.3%

Row | Compound | hERG current change (%, negative = inhibition) at 1uM
47 | Cc1ccc(-c2nnn(CC(=O)N(Cc3cccs3)C(C(=O)NC3CCCC3)c3ccco3)n2)o1 (centres unmarked) | -5.62%
48 | CCCCc1cc(=O)oc2c(C)c(OCC(=O)N3CCC(C(N)=O)CC3)ccc12 | 2.05%
49 | O=C(Nc1nccs1)c1ccc(COc2c(F)c(F)cc(F)c2F)o1 | 4.86%
50 | COc1ccc(CNC(=O)CSc2nnc(Cn3nnc4ccccc43)n2C)cc1 | 12.9%
51 | CC1CN(S(=O)(=O)c2cccc(C(=O)N(C)C3CCN(C)CC3)c2)CC(C)O1.Cl (centres unmarked) | 1.85%
52 | O=C(CCc1ccccc1)NCC(=O)N/N=C/c1ccc(O)cc1O | 7.58%
53 | CC(=O)N1CCOCCOCCN(C(C)=O)CCOCCOCC1 | 16.9%
54 | COc1cccc2cc(C(=O)OCc3ccccc3)c(=O)oc12 | 14.9%
55 | CCOC(=O)C1CCCN(C(=O)C2CCN(C(=O)Nc3ccccc3)CC2)C1 (centres unmarked) | 6.75%
56 | COc1cccc(CC(=O)Nc2nc(-c3cc(OC)ccc3OC)cs2)c1 | 10.8%
57 | CCC(C)Cn1c(S(=O)(=O)O)nc2ccccc21 (centres unmarked) | 13.7%
58 | O=C1Nc2ccc([N+](=O)[O-])cc2OC1CCN1CCN(c2ccccc2)CC1 (centres unmarked) | 1.2%
59 | CCOC(=O)/C(C#N)=C/NC(=O)NC(C)(C)C | 10.7%
60 | CC(C)(C)c1cn(-c2ccc(Cl)cc2)c(=S)[nH]1 | -0.875%
61 | C=CCSc1nc2sc3c(c2c(=O)n1CC)CCc1ccccc1-3 | 8.48%
62 | CCCNC(=O)C1CCN(c2nc(C)cc(C)n2)CC1 | 4.08%
63 | COc1ccc(-c2cc(C(F)(F)F)nc(NCc3ccco3)n2)cc1OC | 14.7%
64 | CN(C)S(=O)(=O)c1ccc(N2CCCC2)c(C(=O)OCC(=O)NC2(C#N)CCCCC2)c1 | 11.6%
65 | O=C1c2cccnc2C(=O)N1Cc1ccc(F)cc1 | -3.34%
66 | CC(=NCCN1CCCCC1)c1c(O)n(-c2ccccc2)c(=O)[nH]c1=O | 16.1%
67 | CC1=CC(C)(C)N(C(=O)CCl)c2ccccc21 | -5.97%
68 | Cc1cccc(C)c1N1CCN(C(=O)Nc2ccc3c(c2)OCCO3)CC1 | -10.1%
69 | O=C(NC(=S)N1CCCC(C(F)(F)F)C1)c1ccc(F)cc1 (centres unmarked) | 13%

Row | Compound | hERG current change (%, negative = inhibition) at 1uM
70 | CCCCC(=O)Nc1ccc(C(=O)N2CCC(C(=O)OCC)CC2)cc1 | 13.6%
71 | CC(=O)c1ccc(NC(=O)CCc2ccc(C)o2)cc1 | 12.2%
72 | Cn1c(N)c(C(=O)COC(=O)c2ccc(Br)o2)c(=O)n(C)c1=O | 4.94%
73 | Cc1cc[n+](CCc2ccccc2)cc1C.[Br-] | 17.1%
74 | CCOc1ccccc1NC(=O)Nc1ccon1 | 9.96%
75 | COc1ccc(CNC(=O)CNC(C)c2ccc(F)cc2)cc1.O=C(O)C(=O)O (centres unmarked) | 14.5%
76 | N/C(=N\OC(=O)COc1ccc(Cl)cc1)c1cccnc1 | 9.42%
77 | CSc1nsc(/C=C/Nc2ccc(C(=O)O)cc2)c1C#N | 9.46%
78 | COc1cc2c(c(OC)c1)C(c1ccncc1)CC(=O)N2 (centres unmarked) | 5.69%
79 | CCC(=O)N(NC1=NS(=O)(=O)c2ccccc21)S(=O)(=O)c1ccc(C)cc1 | 6.93%
80 | CC(C)CCN1CCNC(=O)C1CC(=O)NCCCN1CCOCC1 (centres unmarked) | 14.7%
81 | CCC1(CC)C(=O)N(Cc2ccccc2)C(=O)N(Cc2ccccc2)C1=O | -0.85%
82 | Cc1cccc(-n2c(Cc3cc(=O)[nH]c(=O)[nH]3)nnc2SC(C)C)c1 | 8.6%
83 | CN(C)c1ccc(CN(C(=O)/C=C/c2ccccc2Cl)C2CCS(=O)(=O)C2)cc1 (centres unmarked) | 13.1%
84 | Cc1ccc(C(=O)Nc2cccc(-c3nc4ncccc4o3)c2)cc1 | 12%
85 | COc1cccc2cc(-c3cc(=O)oc4ccc(O)cc34)oc12 | 9.32%
86 | O=C(O)c1nc(-c2ccccc2)n(-c2cccc(C(F)(F)F)c2)n1 | 5.09%
87 | Cc1cccc(C)c1NC(=S)NC(=O)c1ccccc1F | 8.33%
88 | Cc1ccc(C2=NC(C(F)(F)F)(C(F)(F)F)c3c(n(-c4ccc(F)cc4)c(=O)[nH]c3=O)N2)cc1 | 5.31%
89 | COC(=O)C(Cc1ccc(OC(=O)c2ccc(C)cc2)cc1)N1Cc2ccccc2C1=O (centres unmarked) | -4.45%
